Data as given in publication PMC4336329 (PLoS ONE, 2015).
The campaign covered roughly 310,000 compounds. About 2,200 (0.71%) showed an effect of 50% or more. The effect is printed as a negative number. Some of the results follow.

Molecular target: human ether-à-go-go-related gene (hERG) potassium channel (human, UniProt Q12809)
Experiment: primary screen, population patch clamp on CHO cells stably expressing hERG

human ether-à-go-go-related gene (hERG) potassium channel, sequence (Q12809 whole entry, looked up): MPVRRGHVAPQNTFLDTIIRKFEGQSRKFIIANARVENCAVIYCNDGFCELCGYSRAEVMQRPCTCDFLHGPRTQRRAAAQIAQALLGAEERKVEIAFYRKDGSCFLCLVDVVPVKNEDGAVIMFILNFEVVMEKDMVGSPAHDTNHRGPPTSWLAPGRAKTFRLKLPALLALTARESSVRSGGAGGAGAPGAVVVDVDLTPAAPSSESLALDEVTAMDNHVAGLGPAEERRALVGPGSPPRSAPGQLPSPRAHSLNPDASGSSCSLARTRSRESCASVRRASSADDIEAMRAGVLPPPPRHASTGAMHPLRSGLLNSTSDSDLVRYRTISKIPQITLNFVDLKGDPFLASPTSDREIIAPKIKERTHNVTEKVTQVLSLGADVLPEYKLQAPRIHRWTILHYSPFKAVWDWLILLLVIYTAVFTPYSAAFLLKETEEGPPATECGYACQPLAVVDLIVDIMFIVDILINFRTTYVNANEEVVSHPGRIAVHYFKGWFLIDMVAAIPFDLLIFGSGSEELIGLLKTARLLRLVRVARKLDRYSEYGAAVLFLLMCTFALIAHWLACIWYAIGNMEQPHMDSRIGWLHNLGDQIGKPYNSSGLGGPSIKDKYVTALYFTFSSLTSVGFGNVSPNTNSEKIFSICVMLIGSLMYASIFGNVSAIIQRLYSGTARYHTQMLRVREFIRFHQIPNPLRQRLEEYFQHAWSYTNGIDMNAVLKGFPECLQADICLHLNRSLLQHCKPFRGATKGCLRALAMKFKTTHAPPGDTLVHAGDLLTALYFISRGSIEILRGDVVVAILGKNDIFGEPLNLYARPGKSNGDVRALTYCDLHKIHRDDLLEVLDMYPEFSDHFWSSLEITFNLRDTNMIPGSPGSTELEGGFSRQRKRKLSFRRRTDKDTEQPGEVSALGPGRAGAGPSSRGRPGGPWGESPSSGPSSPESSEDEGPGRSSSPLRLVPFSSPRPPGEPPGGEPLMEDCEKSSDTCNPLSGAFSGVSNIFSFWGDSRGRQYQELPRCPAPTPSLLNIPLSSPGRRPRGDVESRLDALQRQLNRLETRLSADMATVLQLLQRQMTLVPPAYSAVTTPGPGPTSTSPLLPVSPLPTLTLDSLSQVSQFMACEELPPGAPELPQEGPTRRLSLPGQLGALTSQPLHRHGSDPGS

Structure (SMILES)	hERG current change (%, negative = inhibition) at 1uM [%]
COCCCNC(=O)CNC(=O)c1cn(-c2ccccc2OC)c(=O)c2ccccc12	-10.1
O=C(Nc1cc(Oc2ccc(Cl)cc2)cc([N+](=O)[O-])c1)c1ccco1	11.1
COc1ccc([C@H]2C=C(C(=O)O)O[C@@H](OCCCCO)C2)cc1	8.72
CCn1c(CC(=O)Nc2ccccc2F)nnc1SCC(=O)NC1CCCCC1	11.2
COc1ccc(/C(N)=N/OC(=O)c2c(-c3ccccc3Cl)noc2C)cc1OC	6.08
COC(=O)C1Cc2ccccc2CN1S(=O)(=O)c1ccc(F)cc1 (centres unmarked)	11.9
O=C(NCC1CCCO1)c1ccc(NC(=O)c2ccc([N+](=O)[O-])cc2)cc1 (centres unmarked)	14.3
CSC1=NC2(C)CCCCC2C12C=CC(=O)C=C2 (centres unmarked)	11.8
CN(Cc1c(F)cccc1Cl)C(=O)c1ccc(COc2ccccc2)cc1	14.7
O=C1NC(=O)c2cc(NC(=O)C3COc4ccccc4O3)ccc21 (centres unmarked)	12
COc1cnn(-c2ccc(C)cc2)c(=O)c1Cl	10.3
Cc1c(Br)c(C(F)(F)F)nn1CC(=O)N1CCCC1	0.474
CCOC(=O)c1cccc(NC(=O)C2CCC(CNc3c(N4CCOCC4)c(=O)c3=O)CC2)c1 (centres unmarked)	12.1
O=c1cc(CSc2n[nH]c(=O)n2C2CC2)c2ccc(O)cc2o1	12.8
COc1cccc2cc(C(=O)OC(C)C(=O)c3ccc(C)cc3)c(=O)oc12 (centres unmarked)	10.9
CCc1ccc(CNCc2ccc(OCC(O)CN(C)Cc3ccccc3)cc2)nc1 (centres unmarked)	8.23
CCC1COC(c2cccn2Cc2ccccc2Cl)=N1 (centres unmarked)	6.34
CN(C)C(=S)NC(=NCc1ccc([N+](=O)[O-])cc1)c1ccccc1	-60.3
COc1cc(OC)c2c(-c3ccccc3)cc(=O)oc2c1C(CC(=O)N1CCN(c2ccccc2)CC1)c1ccc(N(C)C)cc1 (centres unmarked)	17.1

Structure (SMILES)	hERG current change (%, negative = inhibition) at 1uM [%]
CCOc1cccc(C(=O)NC2=NCCS2)c1	9.09
Clc1ccc(Oc2nc3c(Cl)cccc3s2)cc1Cl	11.7
COC(=O)c1ccc(N=NN2CCCCC2)cc1	8.68
O=c1[nH]c2ccccc2cc1CN(CC1CCCO1)S(=O)(=O)c1ccccc1 (centres unmarked)	-1.55
CC1CCN(S(=O)(=O)N2CCC(C(=O)NCCc3ccccc3)CC2)CC1	5.12
Cc1cccc(NC(=O)CN(CCc2ccccc2)S(C)(=O)=O)c1	14.1
O=c1oc2c(-c3cccc(F)c3)cc(O)cc2s1	3.43
Cn1c(=NC(=O)CS(=O)(=O)c2ccc(F)cc2)sc2ccccc21	7.07
CCn1c(SCC(=O)NC2CCCC2)nnc1C(C)NC(=O)c1ccccc1Br (centres unmarked)	24.6
COC(=O)c1ccc(Nc2c([N+](=O)[O-])c(=O)oc3ccccc23)cc1	14.6
COc1ccccc1C(=O)N1CCN(Cc2c[nH]c3ccccc23)CC1.O=C(O)C(=O)O	-6.71
COc1cc(C)c(S(=O)(=O)NOCc2ccccc2)c(C)c1C	10
CCC1CCCCN1C(=O)Nc1cc(Cl)ccc1OC (centres unmarked)	15.2
CCOC(=O)Cn1nc(C)c(NC(=O)COc2ccc([N+](=O)[O-])c(C)c2)c1C	4.27
CCCN(CC(=O)Nc1ccccc1C)C(=O)C1CCN(C(=O)Nc2ccccc2)CC1	-6.26
CC1(C)CC(=O)c2sc(NC(=O)C(C)(C)C)nc2C1	-3.76
CC(NC(=O)CNC(=O)C1CCCCC1)c1ccc(S(N)(=O)=O)cc1 (centres unmarked)	14.9
Cc1ccc(C(=O)CCC(=O)N2CCN(c3ccccc3O)CC2)cc1	11.7
Cn1cccc1Cc1nnc(SCC(=O)NC2CCCC2)n1-c1ccc(F)cc1	1.97

Structure (SMILES)	hERG current change (%, negative = inhibition) at 1uM [%]
O=C(Nc1ccc(S(=O)(=O)Nc2ncccn2)cc1)c1ccc(Br)o1	3.65
CCOc1ccc2c(c1)C(C)=CC(C)(C)N2S(=O)(=O)c1ccc(NC(C)=O)cc1	11.6
CC(C)Oc1ccc(C(=O)Nc2ccc(NC(=O)c3ccco3)c(Cl)c2)cc1	8.44
Cc1ccc(-n2c(O)c(/C=N/n3cnnc3)c3ccccc3c2=O)cc1 [14745934]	9.28
COc1ccc(Cn2c(=O)oc3ccccc32)cc1F	13.5
CCOC(=O)CC1COc2ccccc2N1C(=O)c1ccc(C)cc1 (centres unmarked)	7.32
O=C(NCCO)/C(=C/c1ccc2c(c1)OCO2)NC(=O)c1ccc(Br)cc1	-27.9
Cc1ccc(CNC(=O)CCn2ccc3cc(S(=O)(=O)N4CCCC4)ccc32)cc1	11.1
COc1ccc(N2CCN(c3ccc(C(=O)O)cc3[N+](=O)[O-])CC2)cc1	13.8
C=CCNC(=O)N1CCC(n2nccc2NC(=O)CCc2ccccc2)CC1	16.6
COc1ccc(NCc2nc3ccccc3n2C)cc1	3.96
O=C(Oc1ccccc1C(=O)N1CCOCC1)c1ccc(F)cc1	10.1
COc1cc2cc(C(c3nnnn3C3CCCC3)N3CCCCCC3)c(=O)[nH]c2cc1OC (centres unmarked)	-3.59
O=C(c1ccc2c(c1)OCO2)N1CCCC(c2ccccc2)C1 (centres unmarked)	7.47
Cc1ccc(C(=O)N2CCCC(CCC(=O)N3CCN(c4ccccn4)CC3)C2)cc1 (centres unmarked)	15.9
COCCCNS(=O)(=O)c1ccc2c(c1)OCCO2	5.7
COc1ccc(CC(=O)Nc2c3c(nn2C(C)(C)C)CS(=O)C3)cc1 (centres unmarked)	10
CCC1CCCCN1Cc1ccc(OC)c(C)c1C (centres unmarked)	0.813
